# Measured values as given in PubChem BioAssay AID2675 (National Center for Advancing Translational Sciences (NCATS), 2010).
# The whole screen tested about 280,000 compounds, of which about 100 (0.036%) were called active. This list was built around the results that the source calls inconclusive (neither active nor inactive); the mix of calls is not that of the screen. Calls come from the whole dose curve; as a rule, active = well fitted inhibition curve with a large enough effect in the signal ratio, with a control signal flat (not every such curve was filed as active); inconclusive = small, poorly fitted or top-dose-only effect, or effect the other way, or a change in a side signal; inactive = no such curve, though single readings can be large or run the other way; the % refers to the signal ratio. Where the call is inconclusive, the potency comes from a doubtful curve fit. A note “side channel” means that the fit belongs to a control or component signal, not to the main read-out.
# Molecular target: Muscleblind-like protein 1 (Homo sapiens) (UniProt Q9NR56)
# Sequence of UniProt Q9NR56 (Q9NR56 whole entry, looked up): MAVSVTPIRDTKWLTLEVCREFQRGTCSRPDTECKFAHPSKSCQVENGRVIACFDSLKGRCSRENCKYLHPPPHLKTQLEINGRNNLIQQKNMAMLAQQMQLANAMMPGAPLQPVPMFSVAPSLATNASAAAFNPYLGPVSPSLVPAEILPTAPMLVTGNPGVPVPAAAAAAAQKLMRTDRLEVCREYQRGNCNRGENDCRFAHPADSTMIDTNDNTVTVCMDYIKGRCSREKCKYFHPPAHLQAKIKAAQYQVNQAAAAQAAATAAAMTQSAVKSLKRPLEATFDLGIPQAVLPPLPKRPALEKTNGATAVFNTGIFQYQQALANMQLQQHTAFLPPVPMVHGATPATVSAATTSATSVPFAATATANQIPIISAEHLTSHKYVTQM
# Assay: qHTS Assay for Inhibitors of MBNL1-poly(CUG) RNA binding
# Conditions: TR-FRET MBNL1-His/biotin-(CUG)12 binding, 665/545 ratio; activity change, negative = inhibition: at 57.5 µM (top of the series)
# Procedure, shortened: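 MBNL1-His + Biotin-(CUG)12, cpd titration 92 nM–58 uM; Tb anti-His Ab 0.055 ng/ul, SA-XL665 5 nM (final); 60 min RT; ratiometric 665/545 nm, Ex 340 nm; normalized to buffer and full-complex controls.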
# % is set by controls: 0 for no effect and ±100 for the full control effect; potency is the fitted concentration of half-maximal effect; tags give direction and shape of the fitted curve or compound fluorescence and quenching.
SMILES,"activity change, negative = inhibition",Potency
Cn1c(/C=C/c2ccccc2)nc2ccccc21,inactive: 11.2%,–
O=[N+]([O-])c1ccc(F)cc1OCc1nc(-c2cccs2)no1,–,"inconclusive: 28.2 µM [quencher, side channel, partial curve]"
COc1ccc(C[C@@H]2CN3C(=NC[C@@H]3C)N2C[C@H](C)NC(=O)CCC2CCCCC2)cc1,inactive: 7.66%,–
COc1ccc(/C=C2\SC(=O)N(CCC(=O)NCCCn3ccnc3)C2=O)cc1,–,"inconclusive: 15.8 µM [quencher, side channel, partial curve]"
CCOC(=O)c1[nH]nc(N)c1NC(=O)c1ccc(Cl)cc1Cl,–,"inconclusive: 39.8 µM [quencher, side channel, partial curve, poor fit]"
Nc1nnc(SCC(=O)c2cccc([N+](=O)[O-])c2)s1,–,"inconclusive: 11.2 µM [quencher, side channel, partial curve]"
CCCC(=O)Nc1nnc(-c2ccc(Cl)s2)o1,inactive: 26.1%,–
O=[N+]([O-])c1ccc(Cl)c(S(=O)(=O)N2CCCCCC2)c1,–,"inconclusive: 12.6 µM [quencher, partial curve]"
Cc1ccc(C)c(S(=O)(=O)C(C#N)c2nc3ccccc3nc2N2CCCC2)c1 (stereo not drawn),–,"inconclusive: 14.1 µM [quencher, side channel, partial curve]"
CC(C)C(=O)N1CCC2(CC1)Oc1ccc(F)cc1C(=O)C21CC(c2cccnc2)=NO1 (stereo not drawn),inactive: 7.83%,–
CCc1cccc(N(C(=O)c2csnn2)C(C(=O)NC(C)(C)C)c2ccccn2)c1 (stereo not drawn),–,"inconclusive: 22.4 µM [fluorescent, side channel, single point]"
C[n+]1ccc(/C=C/c2ccccc2O)c2ccccc21,–,"inconclusive: 14.1 µM [quencher, partial curve]"
CN(C)c1cc(O)c(C(=S)Nc2ccccc2)c(N(C)C)c1,inactive: 2.97%,–
COCCNC(=O)/C(C#N)=C/c1c(N2CCCCCC2)nc2c(C)cccn2c1=O,–,"inconclusive: 17.8 µM [quencher, side channel, partial curve]"
Nc1nc(-c2ccc(F)cc2)cs1,–,"inconclusive: 39.8 µM [quencher, side channel, single point]"
O=C(O)C(NS(=O)(=O)c1cccc2nsnc12)c1ccccc1 (stereo not drawn),–,"inconclusive: 14.1 µM [quencher, side channel, partial curve]"
CC(Sc1ccc(Cl)cc1)C(=O)Nc1ccccc1-c1ccccc1 (stereo not drawn),–,"inconclusive: 79.4 µM [inhibitor, partial curve, poor fit]"
O=C(O)c1ccc(-c2cccc([N+](=O)[O-])c2)o1,–,"inconclusive: 11.2 µM [quencher, side channel, partial curve]"
